Data taken from PubChem BioAssay AID1963576 (National Center for Advancing Translational Sciences (NCATS), 2024).
Hit rate of the full screen: of about 46,000 compounds, about 60 (0.1%) were called active. Roughly 3% stayed inconclusive and do not appear here. Calls come from the whole dose curve; as a rule, active = well fitted inhibition curve with a large enough effect; inconclusive = small, poorly fitted or top-dose-only effect; inactive = no such curve, though single readings can be large or run the other way. Some of the results follow.

experiment: Primary qHTS assay for Inhibitors of ovarian cancer metastasis using an organotypic tumor microenvironment (TME) model.; note: nearly all actives have a fitted effect of over 65% in size;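 for activity change, negative = inhibition: plate controls were DMSO wells for no effect and tomatine positive control wells for full effect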; settings: SKOV3ip1-GFP adhesion/invasion on 3D omental model, fluorescence; series mostly up to 45.8 µM; activity change, negative = inhibition: at the top concentration
Procedure, shortened: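 Adhesion/invasion was scored as fixed GFP-labeled SKOV3ip1 cell counts (488/509 nm), normalized to DMSO and tomatine controls. Cancer cells in serum-free medium, with four compound doses (0.36-46 umol/L), sat 2 hr at RT then 16 hr at 37 C on a 48 hr fibroblast/mesothelial/ECM culture.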

outcome, inactive:
COc1cc(-c2noc(-c3ccc(N4CCN(C)CC4)c([N+](=O)[O-])c3)n2)cc(OC)c1OC
Cc1cc(Nc2ccc(C)c(Cl)c2)n2nc(Cc3ccccc3)nc2n1
COc1ccccc1CNS(=O)(=O)c1c(C)nc2scc(C)n2c1=O
CCOc1ccc(NC(=O)c2c(Nc3ccc(OC)cc3OC)sc(C(=O)c3ccc(Cl)cc3)c2N)cc1
Cn1nc(C(=O)Nc2cc(F)ccc2F)c2c1-c1ccccc1SC2
Cc1cccc(-c2nc(SCc3ccc(Br)cc3)n3[nH]c(=O)cc3n2)c1
CCOC(=O)c1cnn(-c2ccc(OC)cc2)c1C1CCN(C(=O)OC(C)(C)C)CC1
COC(=O)c1ccc(NC(=O)CCc2c(C)nn(-c3ccc(N4CCCC4)nn3)c2C)cc1
COc1cc(NC(=O)c2nnn(Cc3ccc(F)cc3)c2N)cc(OC)c1
Cc1[nH]n2c(=O)cc(-c3ccccc3Cl)nc2c1-c1ccccc1
CCC(=O)N1CCc2cc(Br)cc(S(=O)(=O)NCCc3ccc(OC)c(OC)c3)c21
Cc1ccc(CNC(=O)CC2Oc3ccccc3NC2=O)cc1 (centres undefined)
Cc1ccccc1Nc1sc(C(=O)c2ccc3c(c2)OCO3)c(N)c1S(=O)(=O)c1ccccc1
Cc1nn(CC(=O)NCc2ccco2)c(=O)c2cc3ccccc3n12
CC1CCN(S(=O)(=O)c2ccc3c(c2)N(CC(=O)NCc2ccccc2)C(=O)CO3)CC1

Activity change, negative = inhibition, inactive:
CCN(CC)S(=O)(=O)c1ccc2nc(NC(=O)c3cccnc3)sc2c1 -0.0689%
O=C(c1ccc(Cl)cc1)N1CCC(c2ccncc2)CC1 20.8%
CCC[C@H]1C[C@H](C(=O)N[C@@H]([C@@H]2O[C@@H](SC)[C@@H](O)[C@@H](O)[C@@H]2O)[C@H](C)Cl)N(C)C1 12.3%
CC(C)(C)c1ccc(S(=O)(=O)NCc2ccc3c(c2)CCN3C(=O)c2ccccc2)cc1 -7.97%
CCC(CO)NC(=O)C(=O)Nc1c2c(nn1-c1ccc(F)cc1)CSC2 (centres undefined) 13.4%
CCN(c1ncnc2c1cnn2-c1ccc(C)cc1)C1CCCCC1 3.29%
CCOc1ccc(CCNC(=O)CCc2cn(Cc3ccccc3F)c3ccccc23)cc1OCC -18.4%
CCOC(=O)c1cccc(NC(=O)c2cc3sccc3n2Cc2ccc(Cl)cc2)c1 56.9%
CCOc1ccc(NC(=O)CSc2nc(-c3ccc(OC)cc3)nc3c2Cc2c(CO)cnc(C)c2O3)cc1 1.04%
COCCn1c(=O)[nH]c2cc(C(=O)NCc3ccccc3Cl)ccc2c1=O -18.6%
CC1CCCCN1c1csc2ccc(F)cc2c1=O (centres undefined) -0.557%
COc1ccccc1N1CCN(C(=O)CCc2c(C)nn(-c3ccc(N4CCCC4)nn3)c2C)CC1 17.9%
CCn1cc(-c2ccnc3[nH]c(-c4cccc(CN(C)C)c4)cc23)c(-c2ccc(NC(=O)N(C)C)cc2)n1 1.43%
CCOc1ccn(-c2ccc(F)cc2)c(=O)c1C(=O)Nc1ccc(Oc2ccnc(N)c2Cl)c(F)c1 6.73%
CSc1nc2sc3c(c2c(=O)n1-c1ccc(C)c(Cl)c1)CCN(C(C)=O)C3 -3.76%
COc1cc(C(=O)N(Cc2ccc(C(C)C)cc2)C2CCS(=O)(=O)C2)cc(OC)c1OC (centres undefined) -3.33%
COC(=O)c1ccc(NC(=O)CSc2nc(=O)n(Cc3ccco3)c3c2CCC3)cc1 -5.73%
CCOc1ccc(CCNC(=O)c2ccc3c(c2)c(C)c(C)n3C)cc1 2.51%
Cc1ccccc1C(=O)N1CCC(c2nc3ccccc3s2)CC1 2.21%
Cc1nc(Nc2n[nH]c3c2CN(C(=O)N[C@H](CN(C)C)c2ccccc2)C3(C)C)c2sccc2n1 30.2%
CCn1c(SCc2ccccc2)nnc1-c1nonc1NC(C)=O 4.79%
O=C(NCCCc1nc2ccccc2n1Cc1ccccc1Cl)C1CCCCC1 0.627%
CC(=O)C1=C(OC(=O)C(C)C)c2ccccc2S(=O)(=O)N1Cc1ccccc1 3.58%
CCOC(=O)C1CCCN(C(=O)Cn2ncc3c([nH]c4ccccc43)c2=O)C1 (centres undefined) 3.55%
CCN(C(=O)CSc1nc2ccccc2n1CC(=O)Nc1cccc(C#N)c1)c1ccccc1 -10.9%
Cc1cc(NC(=O)CN2C(=O)C(C)(C)c3ccccc32)ccc1Br -2.56%
CC(C)c1ccc(NS(=O)(=O)c2ccc3[nH]cc(C(=O)NC4CCCC4)c(=O)c3c2)cc1 1.47%
Cc1ccc(N2CC3=C(C2=O)C(c2ccc(Br)cc2)NC(=O)N3C)cc1 (centres undefined) 1.79%
Cc1ccc(-c2nc(C(=O)NCc3ccc(Cl)cc3)c3n2CCCCC3)cc1 -19.7%
O=C1Cc2cc(S(=O)(=O)N3CCN(c4ccccc4)CC3)ccc2N1 -7.64%
CCn1c(=O)cc(SCC(=O)Nc2ccc(C)c(F)c2)c2ccccc21 0.735%
O=C(Cn1c(=O)oc2cc(S(=O)(=O)N3CCCCCC3)ccc21)Nc1cccc(C(F)(F)F)c1 5.68%
Cc1ccccc1CNC(=O)c1ccc(NC(=O)c2nsc3ccccc23)cc1 0.177%
CCc1ccccc1N(C)C(=O)c1cn(CC(C)C)c(=O)c2cc(OC)c(OC)cc12 -6.15%
O=S(=O)(NCCNCC=Cc1ccc(Br)cc1)c1cccc2cnccc12 7.87%
Cc1cccc(NC(=O)Nc2nnc(N(C)C3CCCCC3)s2)c1C -4.18%
CCOc1ccccc1-n1ccnc(NCc2ccc(F)cc2)c1=O 8.28%
COc1ccc(-c2nn(CC(=O)NC3CCCC3)c3c2cnc2ccc(F)cc23)cc1 6.91%
O=C(CCC(=O)N1Cc2ccccc2Oc2ncccc21)Nc1ccc(Cl)cc1 22.9%
CC[C@H]1OC(=O)[C@H](C)[C@@H](O[C@H]2C[C@@](C)(OC)[C@@H](O)[C@H](C)O2)[C@H](C)[C@@H](O[C@@H]2O[C@H](C)C[C@H](N(C)C)[C@@H]2O)[C@](C)(O)C[C@@H](C)CN(C)[C@H](C)[C@@H](O)[C@]1(C)O 0.441%
O=C(Cn1ncc2c(=O)oc3ccccc3c21)Nc1cc(F)ccc1F -8.7%
COc1ccc(OC)c(NC2=C(c3ccccc3)C(=O)c3ccccc32)c1 -3.81%
COc1ccc(N2CCN(C(=O)c3cc4c(-c5ccccc5F)nn(C)c4s3)CC2)cc1 -0.336%
COC(=O)c1ccc(Cl)cc1NC(=O)N1CC=C(c2c[nH]c3ccccc23)CC1 -0.405%
